# Results from PubChem BioAssay AID686979 (National Center for Advancing Translational Sciences (NCATS), 2013).
# Screen size: about 420,000 compounds; about 50,000 (12%) were called active. This list was built around the results that the source calls inconclusive (neither active nor inactive); the mix of calls is not that of the screen. Calls come from the whole dose curve; as a rule, active = well fitted inhibition curve with a large enough effect; inconclusive = small, poorly fitted or top-dose-only effect; inactive = flat fitted curve, though single readings scatter. Potencies of inconclusive entries are left out as doubtful fits. Where a SMILES comes first, the peptide text is derived from it. The star is where a group is joined. Cbz = O=C(OCc1ccccc1)*; OtBu = CC(C)(C)O*; tBu = CC(C)(C)*
# Assay: qHTS for Inhibitors of human tyrosyl-DNA phosphodiesterase 1 (TDP1): qHTS in cells in presence of CPT; note: nearly all actives have a fitted effect of over 55% in size
# Conditions: chicken DT40 Tdp1-/-;hTDP1 cells + 20 nM CPT, ATP luminescence, 48 h; activity change, negative = growth inhibition: at 46.2 µM (top of the series) unless noted
# In short: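 Chicken DT40 Tdp1-/- cells stably complemented with human TDP1 were seeded at 400 cells/well in medium containing 20 nM camptothecin, exposed to pin-transferred compounds, and grown at 37 °C for at least 48 hr. Viability was read as ATP luminescence.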
# % is set by controls: 0 for no effect and ±100 for the full control effect; potency is the fitted concentration of half-maximal effect; tags give direction and shape of the fitted curve.
SMILES,Potency,"activity change, negative = growth inhibition"
O=C(N/N=C/c1ccc(OC2CSC2)cc1)c1ccccc1,inactive,
CCN(CC)S(=O)(=O)c1ccc(C(=O)NCC2(N3CCOCC3)CCCCC2)cc1,"inconclusive [inhibitor, single point]",
CC(=O)NC(=S)Nc1ccc(-c2nc3ccc(C)cc3s2)cc1,"inconclusive [inhibitor, partial curve, poor fit]",
COc1ccc(/C=C/C(=O)Nc2ccc3nc4n(c(=O)c3c2)CCCC4)cc1OC,inactive,
CCOC(=O)C1(CCCc2ccccc2)CCN(C(=O)c2cnc(C)cn2)CC1,active: 25.9 µM,
COc1cc(Cl)c(C)cc1NC(=O)COC(=O)c1ccc(CN2CCCC2=O)cc1,inactive,
CCOc1ccccc1N1CCN(C(=O)C2c3ccccc3Oc3ccccc32)CC1,active: 23.1 µM,
COc1ccc(NCc2nn(CC(=O)c3ccc(Br)cc3)c3[n+]2CCCCC3)cc1,"inconclusive [inhibitor, single point]",
COc1ccccc1N(CC(=O)NC1CC2CCC1C2)S(=O)(=O)c1ccc(C)cc1 (stereo unspecified),"inconclusive [inhibitor, single point]",
CCC(C(=O)NCc1ccncc1)c1ccccc1 (stereo unspecified),inactive,
NNC(=O)c1cccc(O)c1,inactive,
COc1ccc(-n2c(SCC(=O)Nc3nccs3)nc3sc4c(c3c2=O)CCN(C)C4)cc1,"inconclusive [inhibitor, single point]",
Cc1nc2cc(NC(=O)[C@@H]3C[C@@H](Sc4ccccn4)CN3Cc3ccccc3F)ccc2s1,,inactive: -4.34% [at 9.04 µM]
CC(C)(C)NC(=O)C(c1ccc(F)cc1)N(Cc1ccccc1Cl)C(=O)c1ccn[nH]1 (stereo unspecified),"inconclusive [inhibitor, single point]",
CC(=O)c1cccc(NC(=O)C(C)OC(=O)CCN=C2NS(=O)(=O)c3ccccc32)c1 (stereo unspecified),inactive,
Cc1nn(C(=O)c2c([N+](=O)[O-])cnn2C)c(C)c1Cl,inactive,
CC(C)(C)NC(=O)c1ccc(Sc2ccccc2)c([N+](=O)[O-])c1,"inconclusive [inhibitor, single point]",
O=C(Nc1ccc2c(c1)OCO2)c1ccc(COc2ccc3c(c2)CCC3)o1,"inconclusive [inhibitor, partial curve]",
COc1c(Cl)cc(C(=O)Nc2cc(-c3nc4ccccc4[nH]3)ccc2C)cc1Cl,"inconclusive [inhibitor, single point]",
Nc1c(C(=O)N2CCOCC2)sc(=S)n1-c1ccccc1,"inconclusive [inhibitor, partial curve]",
COc1ccc(-c2ccc(C(=O)NCc3cccs3)c3occc23)c(C)c1,"inconclusive [inhibitor, single point]",
COc1ccc(Cn2c(-c3ccccc3)nc3c(c(=O)c4ccccc4n3C)c2=O)cc1,"inconclusive [inhibitor, single point]",
CCOC(=O)c1cc(-c2ccc(/C=C3/C(=O)NC(=O)C(C#N)=C3C)o2)ccc1Cl,"inconclusive [inhibitor, single point]",
COc1ccc(OC)c(NC(=O)CC2C(=O)NCCN2C(=O)c2ccccc2)c1 (stereo unspecified),inactive,

SMILES,Potency,"activity change, negative = growth inhibition"
CN(CC(=O)NCC(=O)Nc1ccc(F)cc1)C1CCS(=O)(=O)C1 (stereo unspecified),inactive,
COc1ccc(N(C(=O)c2ccco2)C(C(=O)NC2CCCC2)c2ccccc2)cc1 (stereo unspecified),"inconclusive [inhibitor, single point]",
C[C@H](CO)N1C[C@H](C)[C@@H](CN(C)S(=O)(=O)c2cn(C)cn2)Oc2c(NC(=O)Nc3ccc(C(F)(F)F)cc3)cccc2C1=O,"inconclusive [inhibitor, single point]",
Cc1ccc(NC(=O)c2oc3ccc(Br)cc3c2C)cc1S(=O)(=O)N1CCOCC1,"inconclusive [inhibitor, full curve]",
CC(C)OCCCn1c(=O)c2ccccc2n2c(CCC(=O)N3CCN(c4ccccn4)CC3)nnc12,"inconclusive [inhibitor, partial curve, poor fit]",
O=C(CSc1ccc(-c2ccco2)nn1)Nc1ccc(F)cc1,"inconclusive [inhibitor, single point]",
O=C(C1CC(=O)N(c2ccc(F)cc2)C1)N1CCC(c2nc3ccccc3[nH]2)CC1 (stereo unspecified),inactive,
CN(C)CCN(CC1CCCN(Cc2ccccc2F)C1)C(=O)c1ccc(F)cc1 (stereo unspecified),inactive,
O=C(Cc1ccc(Cl)cc1)Nc1ccc(S(=O)(=O)N2CCOCC2)cc1,"inconclusive [inhibitor, single point]",
CC(C)(C)NC[C@H](O)COc1ccccc1C1CCCC1,active: 12.8 µM,
Clc1ccccc1Nc1nc2ccccc2o1,"inconclusive [inhibitor, single point]",
Cc1ccc2oc(C(=O)Nc3c(C(=O)Nc4cccc(Cl)c4)oc4ccccc34)cc(=O)c2c1,inactive,
COc1cc(C2Nc3ccc4ncccc4c3C3=C2C(=O)CCC3)cc(OC)c1O (stereo unspecified),active: 5.17 µM,
CCn1c(=O)n(CC)c2cc(S(=O)(=O)Nc3cc(C)cc(C)c3C#N)ccc21,inactive,
CCOC(=O)C1C(c2ccc(C(=O)O)cc2)NC(=O)NC1(O)C(F)(F)F (stereo unspecified),inactive,
Cc1cc(C(=O)N2CCCC(C(=O)c3ccc(Oc4ccccc4)cc3)C2)n[nH]1 (stereo unspecified),active: 20.6 µM,
COC(=O)Oc1c(Br)c(=O)oc2ccccc12,"inconclusive [inhibitor, partial curve]",
COc1ccc(N2Cc3cccc(C(=O)O)c3C2=O)cc1,inactive,
O=C(Cc1sc(Nc2ccccc2)nc1-c1ccccc1)NCc1ccccc1,active: 16.4 µM,
O=C1[C@@H]2Cc3c([nH]c4ccccc34)C(c3cccc(Br)c3)N2C(=O)CN1C1CCN(Cc2ccccc2)CC1 (stereo partly specified),"inconclusive [inhibitor, single point]",
COc1ccc(S(=O)(=O)N2CCC(C(=O)N3CCCC3)CC2)cc1Cl,"inconclusive [inhibitor, single point]",
COc1ccc(CN2CCN(C(=O)Cn3nc(C)n4cccc4c3=O)CC2)c(OC)c1OC,inactive,
O=C(NC(=S)Nc1ccc(Oc2ccc(Cl)cc2)cc1)c1ccccc1,"inconclusive [inhibitor, single point]",
Cc1ccc(N2C(=O)CS(=O)(=O)C23C(=O)Nc2ccccc23)cc1C (stereo unspecified),inactive,

SMILES,Potency,"activity change, negative = growth inhibition"
COc1ccc(CN=Cc2c(C(F)(F)F)[nH][nH]c2=O)cc1,,inconclusive: -32.5% [inhibitor]
COC(=O)c1ccc(NC(=O)C(=O)N2CCN(C(=S)Nc3cccc(OC)c3)CC2)cc1,inactive,
O=C(CSc1nc2ccccc2s1)Nc1ccc(Cl)c(S(=O)(=O)N2CCOCC2)c1,active: 23.1 µM,
CCn1c(C)c(C2=CCN(S(=O)(=O)c3ccccc3)CC2)c2ccccc21,"inconclusive [inhibitor, single point]",
O=C(OCC(=O)N(c1ccccc1)C1CCCCC1)c1ccc(CO)cc1,"inconclusive [inhibitor, single point]",
Cc1cccc(-n2ncc3c2CCCC3NC(=O)C2CCOCC2)c1C (stereo unspecified),"inconclusive [inhibitor, single point]",
CCN(CC(=O)Nc1ccccc1OC)C(=O)CCOc1ccc(C(C)(C)C)cc1,"inconclusive [inhibitor, single point]",
CSc1ncnc2c1ncn2CC(=O)C1CCC2C3CCC4=CC(=O)CCC4(C)C3CCC12C (stereo unspecified),active: 5.8 µM,
COc1ccc([N+](=O)[O-])cc1C(=O)Nc1ccc(OCC(=O)N2CCOCC2)cc1,inactive,
CCC(/C=C1\Sc2ccc(OC)cc2N1CC)=C\c1sc2ccc(OC)cc2[n+]1CCCS(=O)(=O)[O-],active: 3.26 µM,
CN(C(=O)COC(=O)CSc1ccccc1)c1c(N)n(Cc2ccccc2)c(=O)[nH]c1=O,inactive,
CN1CCN(C(=O)CCCN2C(=O)/C(=C/c3ccc(Cl)cc3)SC2=S)CC1,active: 14.6 µM,
CCN1CCc2c(OCc3ccccc3)cccc2C1=O,inactive,
Cc1ccc(S(=O)(=O)CCC(=O)OCC(=O)NCC(=O)Nc2c(C)cc(C)cc2C)cc1,"inconclusive [inhibitor, single point]",
Cn1cccc/c1=N\c1cccc[n+]1C,active: 1.46 µM,
CCc1nc2c(OCC(=O)c3ccc(Cl)cc3Cl)cccn2c1N(C)C(=O)c1ccncc1,"inconclusive [inhibitor, single point]",
O=C(c1ccccc1)N(Cc1ccccc1)c1ccccn1,inactive,
Cn1c(=O)c2c(ncn2CCOc2ccc(Br)cc2)n(C)c1=O,"inconclusive [inhibitor, single point]",
Cc1ccc(C)c(NC(=O)c2cc(S(=O)(=O)N3CCCCC3)c[nH]2)c1,"inconclusive [inhibitor, single point]",
CC(NC(=O)OCc1ccccc1)C(=O)NCC(=O)NC(Cc1ccc(OC(C)(C)C)cc1)C(=O)OC(C)(C)C (stereo not drawn) (Cbz-Ala-Gly-Tyr(tBu)-OtBu; configuration not given here),active: 20.6 µM,
CCOC(=O)N1CCC(NC(=O)c2ccc3c(c2)N(Cc2ccccc2C)C(=O)c2ccccc2S3=O)CC1 (stereo unspecified),"inconclusive [inhibitor, single point]",
O=P(Cc1ccncc1)(c1ccccc1)c1ccccc1,inactive,
CN(C)c1ccc(CNC(=O)C2(C)Cc3c(-c4cccc(C(F)(F)F)c4)ccnc3O2)cc1 (stereo unspecified),active: 16.4 µM,
